Each structure is given as a SMILES string. Hit rate of the full screen: of about 43,000 compounds, about 200 (0.47%) were called active. Not shown: some 12% with an inconclusive outcome. Calls follow the shape of the dose curve; as a rule, active = well fitted cell-killing curve with a large enough effect; inconclusive = small, poorly fitted or top-dose-only effect, or effect the other way; inactive = flat fitted curve, though single readings scatter. This is one part of the list.
% is scaled to controls: 0 for no effect and ±100 for the full control effect.

This assay can be described thus: Cell viability qHTS assay in S16 Pmp22-F2sN cells. Also: nearly all actives have a fitted effect of over 65% in size. To be noted: S16 Pmp22-F2sN Schwann cells (luciferase reporters placed in the Pmp22 gene) viability, CellTiter-Glo, 24 h; series mostly up to 57.5 µM; activity change, negative = cytotoxicity: at the top concentration. The text has this:
Assay Provider: Jim Inglese Ph.D. National Center for Advancing Translational Science, National Institutes of Health, Rockville, MD CMT is a heterogeneous group of neurological disorders that affect approximately 1 in 2,500 people. In particular, the most common form of CMT, CMT1A is genetically linked to the duplication of the PMP22 gene which leads to Schwann cell overexpression, thus manifesting itself as a typical case of dose-sensitive diseases. To identify small molecule compounds that can mediate the expression of PMP22 we developed a phenotypic assay screening strategy by utilizing genome editing techniques to construct Schwann cell lines containing novel reporter technology to monitor the transcriptional or translational regulation of PMP22. For high sensitivity we use a bioluminescent reporter system embedded in the 3' UTR of the PMP22 gene (S16(c9) Pmp22-F2sN) to identify compounds that inhibit gene expression. […] We can further discriminate the effect of all transcriptionally active molecules on PMP22 translation or stability with an assay that incorporates a short NLuc peptide (HiBiT) at the C-terminus of expressed PMP22 (S16(f8) PMP22-HiBiT) allowing alpha complementation and luminescence detection of membrane-associated PMP22 protein. These assays were screened against the NCATS Sytravon Library Collection. Miniaturization of these assays to 1536-well plate format for quantitative high throughput screening (qHTS) yielded rich data sets immediately from the qHTS assay (S16(c9) Pmp22-F2sN), when compared with data from a cell viability assay (Cell TiterGlo) to identify compounds that decreased the output signals through cellular toxicity to streamline the selection process of actives for subsequent characterization using the HiBiT assay (S16(f8) PMP22-HiBiT).
Cell viability assay in S16 Pmp22-F2sN cells PROTOCOL TABLE (format as described by Inglese J, Shamu CE and Guy RK. 2007) SEQUENCE No. (e.g., 1, 2, 3, etc.); […] (e.g., Cells, Incubation, Reagent, etc.); VALUE and DESCRIPTION. 1. Cells. Add 500-1,000 cells in 4 uL in growth media (DMEM High Glucose, No Phenol Red media + 10% heat-inactivated FBS + 1% Pen/Strep supplemented media) per well into Greiner 1536-well white/solid bottom high base, TC-treated plates. 2. Compounds. Library compounds and controls added at 23nL per well, transferred by Pin Tool. 3. Incubation. Incubate plates at 37C, 5% CO2, 95% RH for 24 h. 4. Reagent. Add 3uL CellTiter-Glo per well of Greiner 1536-well plates. 5. Incubation. Incubate plates at room temperature for 15 min., protect from light. 6. Detector. FLuc luminescence measured using CCD-based camera (Viewlux). NOTES (numbers refer to Sequence numbers above; values are from representative experiments) 6. Luminescence Read: Clear filter; Exposure = 1 sec, Gain = High, Speed = Slow, Binning = 2X REFERENCES: 1. Inglese J, Shamu CE and Guy RK, Reporting data from high throughput screening of small molecule libraries, Nature Chemical Biology, 2007, 3(8): 438-441. doi.org/10.1038/nchembio0807-438 2. Yasgar A, Shinn P, Jadhav A, Auld DS, Michael S, Zheng W, Austin CP, Inglese J and Simeonov A, Compound Management for Quantitative High-Throughput Screening. J. Assoc. Lab. Auto., 2008, 13: 79-89. doi: 10.1016/j.jala.2007.12.004
(In general: Quantitative high-throughput screening tests each substance at several concentrations.)
`CCS(=O)(=O)NCCc1csc2nc(-c3ccc(C)cc3)nn12`: the “activity change, negative = cytotoxicity” value was inactive: -3.75%.
The result for `O=C(COCc1cc(-c2cccs2)on1)Nc1cccc(O)c1` reads inactive: -10.7%.
Next, `COc1ccc(NC(=O)Cn2cc(C(=O)c3cccs3)c3ccccc32)cc1`: inactive: -7.94%; `CCC1=C(c2ccc(C)cc2)S(=O)(=O)N=C1N1CCC(C(=O)N2CCCCC2)CC1`: inactive: 11.8%.
For the compound `O=C(Cn1ncc2c3ccccc3n(Cc3ccc(F)cc3)c2c1=O)NCCC1=CCCCC1`, the “activity change, negative = cytotoxicity” value was inactive: 1.86%.
On to `Cc1cn2c(=O)cc(COC(=O)c3cccc(NC(=O)c4ccccc4Cl)c3)nc2s1`, for which the “activity change, negative = cytotoxicity” value is inactive: -1.02%.
On to `Cc1ccc(CNc2ncnc3c2nnn3C)cc1`, for which the “activity change, negative = cytotoxicity” value is inactive: -12.2%.
On to `CCC(CC)c1nn2c(=O)cc(COc3ccc(NC(=O)c4ccc(C)cc4)cc3)nc2s1`, for which the “activity change, negative = cytotoxicity” value is inactive: 25.6%.
For the compound `Cc1nn(C(=O)c2ccc(Cl)cc2)c(C)c1S(=O)(=O)N1CCOCC1`, the “activity change, negative = cytotoxicity” value was inactive: 3.78%.
As to `Cc1cccc(OCC(=O)N(Cc2ccc(C(C)(C)C)cc2)Cc2ccco2)c1`, the “activity change, negative = cytotoxicity” value is inactive: -15.4%.
Consider `CN(C)c1ccc(/C=C/c2noc(-c3ccccc3O)n2)cc1`, for which the “activity change, negative = cytotoxicity” value is inactive: 0.653%.
Next, `COc1ccccc1NC(=O)C1=C(C)Nc2nc(SCc3ccccc3Cl)nn2C1c1ccccn1` (stereo not drawn): inactive: 2.66%; `COc1ccc(OCC(=O)NCC(c2ccc(OC)cc2)N2CCCCC2)cc1` (stereo not drawn): inactive: 2.55%; `COc1ccc(C2C(C(=O)Nc3cccnc3)=C(C)Nc3nc(-c4ccccc4)nn32)cc1OC` (stereo not drawn): inactive: 7.58%.
`O=c1[nH]c(=O)n(C2CCCCC2)c(O)c1C1=Nc2ccccc2SC(c2ccccc2)C1` (stereo not drawn): the “activity change, negative = cytotoxicity” value was inactive: 7.69%.
Next, `COc1ccc(-c2nc(CSc3nnc(C)n4c3cc3occc34)c(C)o2)cc1OC`: inactive: 11.2%; `CC(C)C(NS(=O)(=O)c1ccc2c(c1)oc(=O)n2C)C(=O)NCCc1ccccc1` (stereo not drawn): inactive: -21%.
On to `COc1cc(OC)cc(C(=O)N2CCN(C(=O)COc3ccccc3)CC2)c1`, for which the “activity change, negative = cytotoxicity” value is inactive: 9.13%.
`Cc1ccc(C(c2cccc(Br)c2)c2c(C)[nH]c3ccccc23)s1` (stereo not drawn): the “activity change, negative = cytotoxicity” value was inactive: -1.67%.
The result for `CC(C)c1ccc(NC(=O)C(C)N(c2ccccc2)S(C)(=O)=O)cc1` (stereo not drawn) reads inactive: 8.24%; that for `O=c1c2ccccc2n2c(-c3ccc(Cl)cc3)nnc2n1CCc1ccccc1`, inactive: 9.43%; that for `COc1ccc(-n2nc(C(=O)N3CCCC(C)C3)c3c4ccccc4n(C)c3c2=O)cc1Cl` (stereo not drawn), inactive: -1.85%.
The result for `CCOC(=O)c1ccc(NC(=O)CSc2c3c(nc4cc(Cl)ccc24)CCCC3)cc1` reads inactive: 9.86%; that for `COc1cc(OC)c(NC(=O)CCCn2nc(C)c3c(C)n(-c4ccccc4)nc3c2=O)cc1Cl`, inactive: -25.5%.
As to `Cc1ccc(N2CCn3c2nc2c3c(=O)n(CCCc3ccccc3)c(=O)n2C)cc1C`, the “activity change, negative = cytotoxicity” value was inactive: 6.08%.
The result for `CCN(CC)c1nc2ccccc2nc1C(=O)Nc1cc(OC)c(OC)c(OC)c1` reads inactive: -24.6%; that for `O=C(NC1CC(=O)N(c2ccccc2)C1)c1ccc(S(=O)(=O)N2CCCCC2)cc1` (stereo not drawn), inactive: 5.62%.
Next, `Cc1nn2c(C)c(C(=O)NCc3ccco3)cnc2c1-c1ccccc1`: inactive: -0.227%; `Cc1nn(C(=O)c2ccc(Cl)cc2)c(C)c1S(=O)(=O)N1CCCCCC1`: inactive: 0.731%; `O=C(NCCc1ccccc1Cl)c1sc2ncccc2c1-n1cccc1`: inactive: -15.8%.
With `CCC(=O)N1c2ccccc2CC1C(=O)NCCc1ccccc1` (stereo not drawn), the “activity change, negative = cytotoxicity” value was inactive: -3.04%.
Next, `CC(C)CCNC(=O)c1cc2cc(S(=O)(=O)N3CCCCC3)ccc2n1C`: inactive: 0.53%; `Cn1c(=O)oc2cc(S(=O)(=O)N3CCCC(C(=O)NCc4ccc(F)cc4)C3)ccc21` (stereo not drawn): inactive: -2.1%.
On to `CC1=C(C(N)=O)C(c2ccccc2Br)n2ncnc2N1` (stereo not drawn), for which the “activity change, negative = cytotoxicity” value is inactive: -0.987%.
For `O=C(NCc1ccccc1Br)c1cnc2sc(N3CCCCCC3)nn2c1=O`, the “activity change, negative = cytotoxicity” value was inactive: 10.9%.
On to `CCC(=O)Nc1ccccc1-c1nc2ccccc2n(CC(=O)c2ccc(C)cc2)c1=O`, for which the “activity change, negative = cytotoxicity” value is inactive: 10.1%.
Next, `CSc1ncc(Cl)c(C(=O)Nc2c(C(=O)Nc3cccc(Cl)c3)oc3ccccc23)n1`: inactive: -2.1%.
In the case of `Cc1ccc(N2CCN(C(=O)c3cnc(N4CCCCC4)c4ccccc34)CC2)c(C)c1`, the “activity change, negative = cytotoxicity” value was inactive: -29.4%.
The result for `COc1ccc(CNC(=O)CCCN2C(=O)COc3ccc(C)cc32)cc1` reads inactive: 0.315%; that for `COc1cccc(Cn2nnc3c(=O)[nH]c(C4CCN(C(=O)c5ccccc5Cl)CC4)nc32)c1`, inactive: -26.9%; that for `COc1ccc2oc(=O)c(C(=O)NCCc3c(C)[nH]c4ccc(F)cc34)cc2c1`, inactive: 4.8%.
The result for `COCCNc1oc(-c2ccccc2)nc1S(=O)(=O)c1ccc(Br)cc1` reads inactive: 4.78%.
The result for `CCCCN(CC)CCCNC(=O)c1cc2c(=O)[nH]c3ccccc3c2n1C` reads inactive: -2.84%; that for `COc1ccc(NC(=O)CCCSc2nc(-c3ccco3)cc(C(F)(F)F)n2)cc1OC`, inactive: -9.59%; that for `CCc1ccc(-c2cn3c(n2)sc2cc(C(=O)NC4CCCCC4)ccc23)cc1`, inactive: 8.73%.
Turning to `COc1cccc(-c2nc(S(=O)(=O)c3ccc(Cl)cc3)c(NCc3ccccc3)o2)c1`, the “activity change, negative = cytotoxicity” value is inactive: 8.13%.
The result for `COc1cccc(C(=O)Nc2cccc(OCc3cc(=O)n4c5c(sc4n3)CCCC5)c2)c1` reads inactive: 4.72%; that for `CC(=O)Nc1ccc(NS(=O)(=O)c2c(C(=O)N3CCC(C)CC3)c(C)n(C)c2C)cc1`, inactive: 4.37%.

Source of the values: PubChem BioAssay AID1508642 (National Center for Advancing Translational Sciences (NCATS), 2021).
